# Measured values from patent US20210363232A1 (Eli Lilly, published 2021).
# T1: mature Human IL-34 (human, UniProt Q6ZMJ4 21-242)
# T1 sequence: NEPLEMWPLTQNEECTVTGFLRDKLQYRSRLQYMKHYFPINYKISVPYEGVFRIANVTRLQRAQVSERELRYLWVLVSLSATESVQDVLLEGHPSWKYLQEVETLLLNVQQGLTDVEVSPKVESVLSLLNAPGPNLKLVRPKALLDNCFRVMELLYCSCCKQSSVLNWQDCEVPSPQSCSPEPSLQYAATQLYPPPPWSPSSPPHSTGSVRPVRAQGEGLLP
# Experiments:
# Assay in all cases: cell-based or functional assay
# [1] = biological target: T1, mature Human IL-34
# [2] = biological target: T1, mature Human IL-34; remark: listed apart in the source
# [3] = biological target: IL-34 (species not stated)
# Chain of IL-34 (species not stated) (Q8R1R4 21-235): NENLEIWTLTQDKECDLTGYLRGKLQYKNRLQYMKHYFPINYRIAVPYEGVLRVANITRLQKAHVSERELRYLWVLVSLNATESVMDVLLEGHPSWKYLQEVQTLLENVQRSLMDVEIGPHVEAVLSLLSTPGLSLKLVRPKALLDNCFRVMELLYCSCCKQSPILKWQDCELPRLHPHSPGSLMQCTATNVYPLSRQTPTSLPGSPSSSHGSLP
binder,measurement,setting,value
"Human CSF1R Fc fusion protein (Exemplified compound D) (Fc fusion, not shown: a dimerising Fc or GST) not shown","IC50; neutralization of human IL-34 induced luciferase reporter activity, hCSF1R 293 SRE cells",[1],0.56 nM
same,"IC50; inhibition of human IL-34 induced CSF1R dimerization, PathHunter eXpress assay",[2],0.352 nM
same,IC50; inhibition of IL-34 induced ERK phosphorylation in NIH-3T3/CSF1R cells,[3],63.2 nM
